The other results are listed elsewhere or left out. The data describe in vitro nicking of single-stranded DNA by Rep domains at 3 µM enzyme and 37 °C for 1 h; the strands have 90 letters, of which the middle is given. Values are log2 of uncut reads against the no-enzyme pool; the lower, the more was cut; hits are not called. The scaling is to total reads; uncut strands gain when others are lost, and binding without cutting may add a little.
These sequences were tested on T1, Rep nickase domain of tomato golden mosaic virus (assay: uncleaved DNA left, log2 of reads against the no-enzyme library (log2 ratio); higher = less cleavage (more negative = more Rep cleavage of the k-mer); sequences stand for … in CTCGTCCG…ACCGGAGA).
T1 sequence (residues 1-124, tag not shown): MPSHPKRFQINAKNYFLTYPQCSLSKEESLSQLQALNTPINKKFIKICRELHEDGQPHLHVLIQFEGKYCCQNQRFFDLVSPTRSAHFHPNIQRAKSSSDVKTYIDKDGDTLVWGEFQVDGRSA
Experimental: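 A pool of 90-nt single-stranded DNAs with seven random bases just before the constant AC of the nick site (name = the seven bases) was cut by 3 µM recombinant His6-SUMO-tagged Rep nickase domain (300 nM DNA, 50 mM HEPES pH 8.0, 50 mM NaCl, 1 mM MnCl2, 1 h, 37 °C, three replicates). Uncut DNA was amplified and sequenced.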

| Sequence | uncleaved DNA left (log2) |
| --- | --- |
| AGGCTTT | 0.106 |
| GATACCG | 0.00813 |
| CGGGAAG | -0.131 |
| CTAAGGC | 0.0798 |
| CAGTCCA | 0.0132 |
| ATACGAG | -0.03 |
| CTCGCGC | -0.0327 |
| GACACGT | -0.0186 |
| TTAATTC | -0.0879 |
| GGCGGAC | -0.0679 |
| ACGTATG | 0.105 |
| ACAGACA | 0.0507 |
| AGATGTT | -0.461 |
| GCTGTGC | 0.0404 |
| ACTAGTC | 0.0637 |
| TGAGGAT | 0.211 |
| GCACTAA | -0.0937 |
| AGGTTTG | -0.0679 |
| CCTTTAT | -0.0999 |
| AAGCGTG | 0.105 |

| Sequence | uncleaved DNA left (log2) |
| --- | --- |
| CCGGTTA | 0.00683 |
| ACTAAGC | -0.0151 |
| TCCTGGG | 0.0404 |
| GCGTCTA | 0.163 |
| AACGTTG | 0.11 |
| CAGGAGG | 0.0137 |
| TTCCTCT | -0.141 |
| ACAGGAT | 0.182 |
| TTAGGGA | 0.126 |
| CTCCCGT | -0.211 |
| AGCACGC | -0.0733 |
| TCTGATT | -0.219 |
| GCTGCAA | -0.042 |
| AACCCGT | -0.00201 |
| CTAGAGT | -0.165 |
| CCGGTCA | -0.027 |
| GGGCTAT | 0.0287 |
| ATATAAA | -0.0137 |
| TCTTTGT | -0.202 |
| CCGACGT | 0.0174 |

Reference: the supplement of paper PMC7826260
